# From US20140017269A1 (CHILDREN S HOSPITAL MEDICAL CENTER, published 2014)
# B1: Glutathione S-transferase (GST) of Schistosoma japonicum (enzyme)
# chain: not shown
# notes: Released from GST fusion proteins by thrombin; ~26 kDa monomer, found as a ~52 kDa dimer by gel filtration; also called free GST
# Target: the molecule itself
# Assay: gel filtration; self-association
protein,measurement,value
B1,binding result,binds
